According to the supplement of paper PMC4967469:
IC50 is the fitted dose that halves viability relative to control wells, and lower means more sensitive; a fit beyond the top or the lowest dose is shown as a bound at that dose. AUC sums up the same curve from the lowest dose to the 256-fold higher top dose; values near 1 show little effect. For part of these data: An inferred top dose is not printed in the source and was worked back from the curve model. For part of these data: Drugs with an entry number were screened twice under separate entries, and the two screens often disagree.

How the values were obtained:
Assay in all cases: Viability of human cancer cell lines after 72 h of drug (GDSC screen)
OSU-03012 = compound: NCC(=O)Nc1ccc(-n2nc(C(F)(F)F)cc2-c2ccc3c(ccc4ccccc43)c2)cc1 [OSU-03012]; details: top dose 16 µM; top dose inferred
Description: (§1)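 Human cancer cell lines in 384-well plates, medium with 10% serum, drug for 72 h over a 256-fold dose range (nine 2-fold or five 4-fold steps up to the top dose). Adherent lines were fixed and stained with the nucleic acid dye Syto60, suspension lines read with resazurin; signal relative to control wells, capped at 0 and 100%. One two-parameter sigmoid per drug and line, fitted in a mixed model over all curves with the slope shared within a line.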

CUDC-101 = compound: C#Cc1cccc(Nc2ncnc3cc(OC)c(OCCCCCCC(=O)NO)cc23)c1 [CUDC-101]; details: top dose 5.12 µM; top dose inferred
Description: as §1

AC220 = compound: CC(C)(C)c1cc(NC(=O)Nc2ccc(-c3cn4c(n3)sc3cc(OCCN5CCOCC5)ccc34)cc2)no1 [AC220]; details: top dose 1.024 µM; top dose inferred
Description: as §1

5-Fluorouracil = compound: O=c1[nH]cc(F)c(=O)[nH]1 [5-Fluorouracil]; details: top dose 32 µM; top dose inferred
Description: as §1

JNK-9L = compound: Fc1cc(-c2ccnc(Nc3ccc(-n4cnc(N5CCOCC5)n4)cc3)n2)cc(N2CCOCC2)c1 [JNK-9L]; details: top dose 5.12 µM; top dose inferred
Description: as §1

RDEA119 = compound: COc1cc(F)c(F)c(Nc2ccc(I)cc2F)c1NS(=O)(=O)C1(C[C@H](O)CO)CC1 [RDEA119]; details: top dose 5 µM, top dose inferred
Description: as §1

QS11 = compound: OC[C@H](Cc1ccccc1)Nc1nc(Oc2ccc3c(c2)CCC3)nc2c1ncn2Cc1ccc(-c2ccccc2)cc1 [QS11]; details: top dose 10.24 µM
Description: as §1

Cell Line | AUC (OSU-03012) | IC50 (OSU-03012) [µM] | AUC (CUDC-101) | IC50 (CUDC-101) [µM] | AUC (AC220) | IC50 (AC220) [µM] | AUC (5-Fluorouracil) | IC50 (5-Fluorouracil) [µM] | AUC (JNK-9L) | IC50 (JNK-9L) [µM] | AUC (RDEA119; screen: GDSC drug entry 1014) | IC50 (RDEA119; screen: GDSC drug entry 1014) [µM] | AUC (RDEA119; screen: GDSC drug entry 1526) | IC50 (RDEA119; screen: GDSC drug entry 1526) [µM] | AUC (QS11) | IC50 (QS11) [µM]
FU-OV-1 (ovary, adherent) | 0.779 | 8.74 | 0.793 | 3.22 | 0.967 | > 1.02 | 0.982 | > 32 | 0.655 | 0.989 | 0.875 | > 5 | 0.868 | > 5 | 0.981 | > 10.2
Farage (B-cell lymphoma, suspension) | 0.711 | 3.46 | 0.355 | 0.138 | 0.985 | > 1.02 | 0.539 | 2.5 | 0.502 | 0.323 | 0.93 | > 5 | 0.985 | > 5 | 0.913 | > 10.2
G-292 Clone A141B1 (osteosarcoma, adherent) | 0.661 | 3.67 | 0.884 | > 5.12 | 0.959 | > 1.02 | 0.957 | > 32 | 0.842 | > 5.12 | 0.825 | > 5 | 0.862 | > 5 | 0.932 | > 10.2
G-361 (melanoma, adherent) | 0.765 | 5.64 | 0.534 | 0.394 | 0.952 | > 1.02 | 0.838 | 20.4 | 0.469 | 0.264 | 0.358 | 0.129 | 0.555 | 0.439 | 0.683 | 2.03
G-401 (kidney, adherent) | 0.668 | 3.1 | 0.605 | 0.639 | 0.979 | > 1.02 | 0.54 | 2.6 | 0.477 | 0.276 | 0.776 | 2.2 | 0.835 | 3.77 | 0.937 | > 10.2
G-402 (soft tissue, adherent) | 0.751 | 6.87 | 0.85 | > 5.12 | 0.811 | 0.782 | 0.624 | 4.95 | 0.471 | – | 0.881 | > 5 | 0.857 | > 5 | 0.917 | > 10.2
G-MEL (melanoma, adherent) | 0.762 | 5.67 | 0.595 | 0.58 | 0.983 | > 1.02 | 0.986 | > 32 | 0.386 | 0.156 | – | – | 0.248 | 0.0595 | 0.976 | > 10.2
GAMG (glioma, adherent) | 0.695 | 3.65 | 0.476 | 0.274 | 0.985 | > 1.02 | 0.809 | 17.8 | 0.659 | 0.909 | 0.812 | 2.83 | 0.911 | > 5 | 0.922 | > 10.2
GB-1 (glioma, adherent) | 0.463 | 0.777 | 0.402 | 0.164 | 0.935 | > 1.02 | 0.677 | 6.85 | 0.473 | 0.266 | 0.757 | 2.01 | 0.889 | > 5 | 0.778 | 4.94
